Values marked as one replicate rest on one cluster of the flow cell; about a third of the high ones do not repeat.
These sequences were tested on ATP (assay: switch fluorescence ratio, 500 uM ATP over buffer (Cy3 cluster intensity, sum of 5 cycles each) (fold (ratio)); higher = stronger signal-on switching upon ATP binding; sequences stand for … in TCGTCGGCAGCGTCAGATGTGTATAAGAGACAGTTTTTTTTTTTTTTTTTTTTTTTTT…TC). Conditions: aptamer strand: ATP DNA aptamer (quencher-CACCTGGGGGAGTATTGCGGAGGAAGG + anchor), 100 nM annealed; ATP concentration: 500 uM; one replicate.
In short: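 Between each of five buffer/ATP cycles, the flow-cell was stripped with NaOH and re-annealed. Each cycle imaged Cy3-labelled switching-strand clusters, annealed to 100 nM quencher-labelled ATP aptamer on a modified Illumina MiSeq flow-cell, first in selection buffer and then after 15 min with 500 uM ATP at 22 °C. The fluorescence ratio is summed target-cycle over summed buffer-cycle Cy3 intensity per cluster, averaged per switch-domain sequence, with clusters outside 100-1000 RFU excluded.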
In the case of TGGTACGTCG, the switch fluorescence ratio is reported as 0.938.
TGGTACTCCG was tested, and the switch fluorescence ratio was 1.05.
TGGTAGCCTG was tested, and the switch fluorescence ratio was 1.
For TGGTAGGAAC, the switch fluorescence ratio was 1.02.
For TGGTATAAGA, the switch fluorescence ratio was 1.08.
With TGGTATAGGA the switch fluorescence ratio was 0.944.
In the case of TGGTATGGTC, the switch fluorescence ratio is reported as 1.02.
TGGTATTGGC gave a switch fluorescence ratio of 1.02.
In the case of TGGTCAAAA, the switch fluorescence ratio is reported as 0.993.
TGGTCACCAT gave a switch fluorescence ratio of 0.996.
With TGGTCACTTA the switch fluorescence ratio was 0.979.
TGGTCAGACT showed a switch fluorescence ratio of 0.977.
TGGTCAGGTT gave a switch fluorescence ratio of 0.964.
Work on TGGTCATGCA yielded a switch fluorescence ratio of 1.03.
Sequence TGGTCGAACT has a switch fluorescence ratio of 0.996.
TGGTCGCCCA showed a switch fluorescence ratio of 0.981.
TGGTCGTTTG gave a switch fluorescence ratio of 0.997.
TGGTCTCATT showed a switch fluorescence ratio of 0.97.
For TGGTCTTCGA, the switch fluorescence ratio was 1.01.
TGGTGAAAAC was tested, and the switch fluorescence ratio was 1.02.
TGGTGAACCA gave a switch fluorescence ratio of 1.01.
Sequence TGGTGCACAT has a switch fluorescence ratio of 1.02.
With TGGTGCGAAC the switch fluorescence ratio was 1.05.
TGGTGCGCGT gave a switch fluorescence ratio of 1.11.
Work on TGGTGCGGCT yielded a switch fluorescence ratio of 1.
In the case of TGGTGCGGGA, the switch fluorescence ratio is reported as 1.07.
TGGTGGTTC gave a switch fluorescence ratio of 0.97.
TGGTGGTTCA was tested, and the switch fluorescence ratio was 0.998.
TGGTGTAGT gave a switch fluorescence ratio of 1.03.
Sequence TGGTGTCAGA has a switch fluorescence ratio of 1.04.
Sequence TGGTGTGAAC has a switch fluorescence ratio of 1.
TGGTGTTAAT showed a switch fluorescence ratio of 0.939.
In the case of TGGTTACCGT, the switch fluorescence ratio is reported as 0.97.
TGGTTATAGT gave a switch fluorescence ratio of 0.986.
TGGTTATGCT gave a switch fluorescence ratio of 0.957.
For TGGTTCACAT, the switch fluorescence ratio was 1.02.
For TGGTTCGCCC, the switch fluorescence ratio was 0.97.
TGGTTGAACT was tested, and the switch fluorescence ratio was 0.989.
TGGTTGACTA gave a switch fluorescence ratio of 0.961.
For TGGTTTATAA, the switch fluorescence ratio was 1.01.
TGGTTTCGGC gave a switch fluorescence ratio of 1.
TGGTTTGAC gave a switch fluorescence ratio of 0.992.
For TGTAAAATTG, the switch fluorescence ratio was 1.02.
With TGTAACCAAA the switch fluorescence ratio was 1.01.
Work on TGTAAGACAC yielded a switch fluorescence ratio of 1.04.
TGTAAGGTTA was tested, and the switch fluorescence ratio was 1.
Sequence TGTAATACAT has a switch fluorescence ratio of 1.02.
Sequence TGTAATATC has a switch fluorescence ratio of 1.15.
With TGTAATCTTT the switch fluorescence ratio was 0.993.
TGTAATGCA was tested, and the switch fluorescence ratio was 1.02.
TGTACAGCGT showed a switch fluorescence ratio of 1.
TGTACGAGGC gave a switch fluorescence ratio of 1.04.
With TGTACGGTC the switch fluorescence ratio was 0.841.
For TGTACGTGCG, the switch fluorescence ratio was 1.04.
Work on TGTACGTGG yielded a switch fluorescence ratio of 0.99.
TGTACTATGT gave a switch fluorescence ratio of 1.04.
For TGTAGAGAGT, the switch fluorescence ratio was 0.987.
TGTAGATGA was tested, and the switch fluorescence ratio was 1.01.
TGTAGCGCGG showed a switch fluorescence ratio of 0.985.
TGTAGGATCC showed a switch fluorescence ratio of 0.986.
For TGTAGTCTCT, the switch fluorescence ratio was 1.01.
TGTAGTGCAT was tested, and the switch fluorescence ratio was 1.01.
For TGTATATTCA, the switch fluorescence ratio was 1.05.
For TGTATCGACG, the switch fluorescence ratio was 1.02.
Sequence TGTATGCATC has a switch fluorescence ratio of 0.975.
With TGTATGCCTC the switch fluorescence ratio was 1.02.
In the case of TGTATGCTGT, the switch fluorescence ratio is reported as 0.991.
For TGTATGGCTG, the switch fluorescence ratio was 1.03.
With TGTATGTCTG the switch fluorescence ratio was 1.03.
Sequence TGTATTAAGA has a switch fluorescence ratio of 1.02.
In the case of TGTATTCCCA, the switch fluorescence ratio is reported as 1.01.
In the case of TGTATTTGGT, the switch fluorescence ratio is reported as 0.946.
Sequence TGTCAAAAGC has a switch fluorescence ratio of 0.969.
TGTCAAGCA gave a switch fluorescence ratio of 0.998.
Sequence TGTCAATATT has a switch fluorescence ratio of 1.03.
For TGTCACCGGA, the switch fluorescence ratio was 0.998.
TGTCACCTAA was tested, and the switch fluorescence ratio was 1.08.
TGTCACGTTA gave a switch fluorescence ratio of 1.22.
In the case of TGTCAGTCGC, the switch fluorescence ratio is reported as 0.986.
For TGTCATGCGT, the switch fluorescence ratio was 0.934.
For TGTCCAACTT, the switch fluorescence ratio was 1.05.
In the case of TGTCCAAGAC, the switch fluorescence ratio is reported as 1.08.
Work on TGTCCGCAGG yielded a switch fluorescence ratio of 1.08.
Work on TGTCCGTCTC yielded a switch fluorescence ratio of 1.32.
Sequence TGTCGAGTTT has a switch fluorescence ratio of 0.954.
In the case of TGTCGCAATA, the switch fluorescence ratio is reported as 1.11.
Sequence TGTCGCCCGC has a switch fluorescence ratio of 1.03.
With TGTCGCGGGA the switch fluorescence ratio was 1.1.
In the case of TGTCGCGGTT, the switch fluorescence ratio is reported as 1.01.
In the case of TGTCGGTATG, the switch fluorescence ratio is reported as 0.976.
For TGTCGGTGGC, the switch fluorescence ratio was 1.09.
Work on TGTCGTACTG yielded a switch fluorescence ratio of 1.02.
With TGTCGTTGAG the switch fluorescence ratio was 1.02.
TGTCGTTGCT was tested, and the switch fluorescence ratio was 0.998.
TGTCTCATTT was tested, and the switch fluorescence ratio was 0.971.
TGTCTGACGG was tested, and the switch fluorescence ratio was 1.01.
In the case of TGTCTTCGGC, the switch fluorescence ratio is reported as 0.991.
TGTCTTGGGA was tested, and the switch fluorescence ratio was 0.96.
With TGTCTTTAGG the switch fluorescence ratio was 0.974.
TGTCTTTCCA was tested, and the switch fluorescence ratio was 0.985.
With TGTCTTTGCG the switch fluorescence ratio was 0.977.
Work on TGTGAAAAAA yielded a switch fluorescence ratio of 1.03.
For TGTGAAAAGA, the switch fluorescence ratio was 1.02.
Sequence TGTGAAACAT has a switch fluorescence ratio of 1.03.
TGTGAATGTG was tested, and the switch fluorescence ratio was 0.978.
Sequence TGTGACTCGT has a switch fluorescence ratio of 0.959.
TGTGAGAGAA gave a switch fluorescence ratio of 1.03.
TGTGAGCCAC gave a switch fluorescence ratio of 1.01.
TGTGAGGCAT showed a switch fluorescence ratio of 1.07.
TGTGAGTACC showed a switch fluorescence ratio of 0.988.
With TGTGATCTTG the switch fluorescence ratio was 0.982.
TGTGATGCAT gave a switch fluorescence ratio of 1.01.
Work on TGTGATGCGG yielded a switch fluorescence ratio of 1.03.
TGTGCAAGTC was tested, and the switch fluorescence ratio was 1.11.
TGTGCAATGG gave a switch fluorescence ratio of 0.942.
In the case of TGTGCCCACG, the switch fluorescence ratio is reported as 1.01.
TGTGCGTCA was tested, and the switch fluorescence ratio was 0.991.
Sequence TGTGGAAAAG has a switch fluorescence ratio of 0.995.
TGTGGACGCC was tested, and the switch fluorescence ratio was 0.984.
Work on TGTGGATGGC yielded a switch fluorescence ratio of 1.03.
TGTGGCACGC showed a switch fluorescence ratio of 1.05.
Sequence TGTGGCGCGG has a switch fluorescence ratio of 0.977.
For TGTGGCTGGA, the switch fluorescence ratio was 1.04.
TGTGGGCTAG showed a switch fluorescence ratio of 0.934.
Sequence TGTGGGGT has a switch fluorescence ratio of 1.01.
Sequence TGTGGGTGAC has a switch fluorescence ratio of 0.998.
TGTGGTAGCA showed a switch fluorescence ratio of 0.987.
TGTGGTCGG gave a switch fluorescence ratio of 0.993.
TGTGTAAACA showed a switch fluorescence ratio of 1.04.
Sequence TGTGTAATTC has a switch fluorescence ratio of 1.01.
TGTGTAGGGT gave a switch fluorescence ratio of 1.02.
Sequence TGTGTATCTA has a switch fluorescence ratio of 0.977.
Sequence TGTGTCTGTG has a switch fluorescence ratio of 0.97.
With TGTGTGCACA the switch fluorescence ratio was 1.02.
With TGTGTGGTCA the switch fluorescence ratio was 0.982.
In the case of TGTGTGTCCT, the switch fluorescence ratio is reported as 1.01.
Work on TGTGTTACCG yielded a switch fluorescence ratio of 0.973.
Sequence TGTGTTCCTA has a switch fluorescence ratio of 0.969.
TGTGTTCGTC showed a switch fluorescence ratio of 1.
TGTGTTTGGA gave a switch fluorescence ratio of 1.03.
With TGTTAAATAA the switch fluorescence ratio was 1.01.
TGTTAACAGC gave a switch fluorescence ratio of 0.985.
Work on TGTTAAGACA yielded a switch fluorescence ratio of 1.08.
In the case of TGTTAATAAT, the switch fluorescence ratio is reported as 1.05.
TGTTAATTCC showed a switch fluorescence ratio of 1.02.
Work on TGTTACACTT yielded a switch fluorescence ratio of 1.04.
TGTTACAGTG was tested, and the switch fluorescence ratio was 0.989.
TGTTACTAGG showed a switch fluorescence ratio of 1.02.
In the case of TGTTAGAAGC, the switch fluorescence ratio is reported as 1.01.
TGTTAGCGAG was tested, and the switch fluorescence ratio was 1.03.
In the case of TGTTAGGAGT, the switch fluorescence ratio is reported as 1.07.
Work on TGTTAGTCCG yielded a switch fluorescence ratio of 0.915.
TGTTATCGGG gave a switch fluorescence ratio of 0.972.
TGTTATCGT showed a switch fluorescence ratio of 1.03.
TGTTCATTAG was tested, and the switch fluorescence ratio was 0.97.
TGTTCCTTAA was tested, and the switch fluorescence ratio was 1.
Work on TGTTCGCGCG yielded a switch fluorescence ratio of 0.99.
TGTTCGGAGG showed a switch fluorescence ratio of 1.01.
TGTTCTATCG showed a switch fluorescence ratio of 1.02.
TGTTCTCTGC showed a switch fluorescence ratio of 1.05.
TGTTGAGAGC gave a switch fluorescence ratio of 1.01.
Sequence TGTTGCGGTT has a switch fluorescence ratio of 1.02.
For TGTTGCGTCG, the switch fluorescence ratio was 0.963.
Sequence TGTTGGCCTG has a switch fluorescence ratio of 1.02.
TGTTGGCTT showed a switch fluorescence ratio of 0.94.
TGTTGGGTCG was tested, and the switch fluorescence ratio was 0.942.
TGTTGGTAGC was tested, and the switch fluorescence ratio was 1.01.
In the case of TGTTGGTGT, the switch fluorescence ratio is reported as 1.03.
For TGTTGGTGTG, the switch fluorescence ratio was 1.03.
With TGTTGGTTAA the switch fluorescence ratio was 0.96.
In the case of TGTTGTCTGG, the switch fluorescence ratio is reported as 0.967.
TGTTGTGACG was tested, and the switch fluorescence ratio was 0.942.
TGTTGTTCTT showed a switch fluorescence ratio of 0.979.
Work on TGTTTACCGT yielded a switch fluorescence ratio of 0.995.
TGTTTAGTAA was tested, and the switch fluorescence ratio was 0.994.
With TGTTTCAGGA the switch fluorescence ratio was 0.999.
With TGTTTGCGAC the switch fluorescence ratio was 0.993.
TGTTTGCGGA showed a switch fluorescence ratio of 1.01.
With TGTTTTACA the switch fluorescence ratio was 1.06.
Sequence TGTTTTTCAA has a switch fluorescence ratio of 0.973.
TGTTTTTTT was tested, and the switch fluorescence ratio was 0.973.
For TTAAAAAGGC, the switch fluorescence ratio was 1.13.
TTAAACCGTA gave a switch fluorescence ratio of 1.04.
Work on TTAAACCGTT yielded a switch fluorescence ratio of 0.994.
TTAAAGTTAC showed a switch fluorescence ratio of 1.08.
TTAAATCCCA was tested, and the switch fluorescence ratio was 1.04.
Work on TTAAATGGAT yielded a switch fluorescence ratio of 1.03.
TTAAATTTTC was tested, and the switch fluorescence ratio was 0.965.
TTAACAGTCT gave a switch fluorescence ratio of 1.05.
For TTAACATTCG, the switch fluorescence ratio was 1.02.
In the case of TTAACCCGCT, the switch fluorescence ratio is reported as 1.
TTAACCGCTG gave a switch fluorescence ratio of 1.13.
Sequence TTAACCTTCA has a switch fluorescence ratio of 2.92.
With TTAACGAACC the switch fluorescence ratio was 1.38.
With TTAACGCGAA the switch fluorescence ratio was 1.15.
Work on TTAACGCGTA yielded a switch fluorescence ratio of 1.01.
TTAACGGATT gave a switch fluorescence ratio of 1.02.
TTAACGTCGT gave a switch fluorescence ratio of 0.983.
TTAACGTTTT was tested, and the switch fluorescence ratio was 1.02.
For TTAAGAACCG, the switch fluorescence ratio was 1.03.

From the supplement of paper PMC10126150
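Also: ATP exposure 15 min at 22 °C before imaging.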
